Read counts are not given, so values of variants with three or more changes are uncertain.

These results are taken from the RNAGym collection of RNA variant scans (doi:10.7554/elife.90254).

B1: LINE1-mini (parent)
chain: GGCAGAGCUCAACACAGCGUGGCAAAGUGGCUGUGGCUAGACUGCC

Variants of B1 are the subject of the series. Nature of the series: self-cleavage, relative activity (ratio to wild type); higher = more cleavage; in vitro, sequencing; the parent is a self-cleaving ribozyme.
As for GGCAGAGCUCAACACAGCGAGGCAAAAUGGCUGUGGCUAGCCUGUC [U20A G27A A41C C45U], the self-cleavage stood at 0.03.

In the case of GGCAGAGCUCAACACAGCUUGGCAAAGUGGCAGUGGAUAGACUGCC [G19U U32A C37A], the self-cleavage is 0.03.

With GGCAGAGCUCAACACAGCUAGGCUAAGUGGCUGUGGCUGGACUGCC [G19U U20A A24U A39G], the self-cleavage was found to be 0.08.

With GGCAGAGCUCAACACAGCUUGGCAAAGGGGCUGUGGCUAUACUGCC [G19U U28G G40U], the self-cleavage is 0.01.

With GGCAGAGCUCAACACAGCGAGGCAACGUGGCUGUGGCCGGAGUGCC [U20A A26C U38C A39G C42G], the self-cleavage was 0.07.

For the variant GGCAGAGCUCAACACAGCUUGGCAAAGUGGCUGUGGCUAUACUGUC [G19U G40U C45U], the self-cleavage is 0.02.

For GGCAGAGCUCAACACAGCGAGGAAAAGUGGCUGUGGCUACACUGCC [U20A C23A G40C], the self-cleavage was found to be 0.22.

With GGCAGAGCUCAACACAGCUAAGCAAAGAGGCUGUGGCUAUACUGCU [G19U U20A G21A U28A G40U C46U], the self-cleavage was 0.01.

On to GGCAGAGCUCAACACAGCUUGGCAAAGUGGCUGCAGCUAGACUGCC [G19U U34C G35A], for which the self-cleavage came out at 0.03.

GGCAGAGCUCAACACAGCUGGGCAAAGUGGCUGAGGCUAGACUGCC [G19U U20G U34A]: the self-cleavage turned out to be 0.03.

In the case of GGCAGAGCUCAACACAGCGAGGCAAAGUGGCUGUGGCUAGACUGGU [U20A C45G C46U], the self-cleavage was determined as 0.16.

As for GGCAGAGCUCAACACAGCUGGGCAAAGUGGCUGUUGCUAGACUACC [G19U U20G G35U G44A], the self-cleavage worked out at 0.15.

For GGCAGAGCUCAACACAGCGAGGCAAAGUGGCUGUGGCUAGUCUUCC [U20A A41U G44U], the self-cleavage worked out at 0.12.

On to GGCAGAGCUCAACACAGCUUGGCAAAGUGGCGGUGGCUAUACUGCC [G19U U32G G40U], for which the self-cleavage stood at 0.03.

On to GGCAGAGCUCAACACAGCUUGGCAAAGUUACUGUGGCUAGACUGCC [G19U G29U G30A], for which the self-cleavage came out at 1.52.

Take GGCAGAGCUCAACACAGCUCGGCAAAGUGGCUGUGGCUCGACUGCC [G19U U20C A39C]: the self-cleavage was 0.01.

As for GGCAGAGCUCAACACAGCUUGGCAAAGUGGCUGUGUCUAGACUGUC [G19U G36U C45U], the self-cleavage was 0.07.

Regarding GGCAGAGCUCAACACAGCUGGGCAAAGGGGCUGUAGCUAGACUGCC [G19U U20G U28G G35A], the self-cleavage was found to be 0.13.

Take GGCAGAGCUCAACACAGCUCGGCAACGUGCUUGUGGCUAGACUGCC [G19U U20C A26C G30C C31U]: the self-cleavage was determined as 0.11.

For the variant GGCAGAGCUCAACACAGCGAGACAAAGUGGCUGUGGAUAGACUGCC [U20A G22A C37A], the self-cleavage was 0.02.

As to GGCAGAGCUCAACACAGCUUGGCAAAGUGUCUGAGGCUAGACUGCC [G19U G30U U34A], the self-cleavage was found to be 0.03.

Regarding GGCAGAGCUCAACACAGCGAGGCAUAGUGGGUGUGGCUAGACUGCC [U20A A25U C31G], the self-cleavage is 0.12.

Turning to GGCAGAGCUCAACACAGCUAGGCAAAGUGGCUGUGGCUAGUCUGCC [G19U U20A A41U], the self-cleavage was found to be 0.21.

Turning to GGCAGAGCUCAACACAGCGAGCCAGAGUGGCUGUGGCUAGUCUGCC [U20A G22C A25G A41U], the self-cleavage turned out to be 0.08.

On to GGCAGAGCUCAACACAGCGAAGCAAAGUGGCUGUGGCUAGACUGAC [U20A G21A C45A], for which the self-cleavage stood at 1.11.

For the variant GGCAGAGCUCAACACAGCUUGGCAAAGUGGCUGCGGCUCGACUGUC [G19U U34C A39C C45U], the self-cleavage worked out at 0.09.

For GGCAGAGCUCAACACAGCUUGGCAAAGUGUCUGUGGCUAGAUGGGC [G19U G30U C42U U43G C45G], the self-cleavage amounted to 0.1.

For the variant GGCAGAGCUCAACACAGCUUGGCAAAGUGGCUGUGGCACGACUGCC [G19U U38A A39C], the self-cleavage worked out at 0.05.

Regarding GGCAGAGCUCAACACAGCGAGGUAAAGUUGUUGUGGAUAGACUGCC [U20A C23U G29U C31U C37A], the self-cleavage was 0.01.

On to GGCAGAGCUCAACACAGCUUGGCAAAGUGUGUGUGGCUAGACUACC [G19U G30U C31G G44A], for which the self-cleavage amounted to 0.04.

As for GGCAGAGCUCAACACAGCGAGGCAACGUGGCGGUGGCUAGACUACC [U20A A26C U32G G44A], the self-cleavage was found to be 0.07.

GGCAGAGCUCAACACAGCGAGUCAAAGAGGCUGUGGCAAGACUGCC [U20A G22U U28A U38A]: the self-cleavage amounted to 0.2.

As to GGCAGAGCUCAACACAGCUAGGCAAAGUGGAUGUGGCUAGACCGCC [G19U U20A C31A U43C], the self-cleavage is 0.03.

In the case of GGCAGAGCUCAACACAGCGAGGAAAAGUGACUGUGGCUGGCCUUCC [U20A C23A G30A A39G A41C G44U], the self-cleavage came out at 0.05.

For the variant GGCAGAGCUCAACACAGCGAGGCAAAGUGGCUGUGGCUAGAAGGCC [U20A C42A U43G], the self-cleavage stood at 0.1.

As for GGCAGAGCUCAACACAGCGAGUCAAAGUGCUUGAGGUUGAACUGCC [U20A G22U G30C C31U U34A C37U A39G G40A], the self-cleavage amounted to 0.77.

On to GGCAGAGCUCAACACAGCGAGGCAAAGUAGUAGUGCCUAGACUGCC [U20A G29A C31U U32A G36C], for which the self-cleavage worked out at 0.01.

GGCAGAGCUCAACACAGCGACGCAAAGUGGCUGUGGCUAGACUACU [U20A G21C G44A C46U]: the self-cleavage worked out at 0.04.

With GGCAGAGCUCAACACAGCGAGGCAAUGUGGGUGUGGCUAGACUGCU [U20A A26U C31G C46U], the self-cleavage was 0.02.

Turning to GGCAGAGCUCAACACAGCGAAGCAAAGUGGCUGGGGCAAGUCUGCC [U20A G21A U34G U38A A41U], the self-cleavage amounted to 0.04.

With GGCAGAGCUCAACACAGCUUGGCAAAGUGGCAGUGGCUGGACUGCC [G19U U32A A39G], the self-cleavage is 0.02.

With GGCAGAGCUCAACACAGCGAGGCAAAGUGGCUGUGGCUUGACUGCA [U20A A39U C46A], the self-cleavage was found to be 0.03.

GGCAGAGCUCAACACAGCGACGCAAAGUGGCGGUGGAUAGACUGCC [U20A G21C U32G C37A]: the self-cleavage came out at 0.02.

With GGCAGAGCUCAACACAGCGAGGCAAAGUGGAUGUGGCUAGUCGGCC [U20A C31A A41U U43G], the self-cleavage came to 0.01.

For the variant GGCAGAGCUCAACACAGCGAGGCAAAGUGGGUGUGGCUAGACUGCG [U20A C31G C46G], the self-cleavage was determined as 0.03.

With GGCAGAGCUCAACACAGCGAUGCAACGUGGCUGUGGCGAGACUGCC [U20A G21U A26C U38G], the self-cleavage came to 0.01.

Take GGCAGAGCUCAACACAGCUUGGCAAAGUGGCUGUGCCUAGAUUGCC [G19U G36C C42U]: the self-cleavage is 0.05.

With GGCAGAGCUCAACACAGCGAGUCAAAGUGGCUGUGGAUAGACUGCA [U20A G22U C37A C46A], the self-cleavage was found to be 0.07.

As to GGCAGAGCUCAACACAGCUGGGCUAAGUCGCUGUGGCUAGACUGCC [G19U U20G A24U G29C], the self-cleavage is 1.66.

With GGCAGAGCUCAACACAGCUUGGCAAAGUUGCUGUGGCAAGACUGCC [G19U G29U U38A], the self-cleavage came out at 0.13.

As for GGCAGAGCUCAACACAGCUCGGGAAAGUGGCAGUGGCUAGACUGCC [G19U U20C C23G U32A], the self-cleavage came out at 0.05.

For GGCAGAGCUCAACACAGCGAGGCAAAGUAGUUGUGGCUAGACUGCC [U20A G29A C31U], the self-cleavage was 0.34.

Turning to GGCAGAGCUCAACACAGCGAAGAAAAGUGGCUGUGCCUAGACGGCC [U20A G21A C23A G36C U43G], the self-cleavage is 0.

For the variant GGCAGAGCUCAACACAGCGAGUCAAAGUGGCUGUGGCUAGCCUGGC [U20A G22U A41C C45G], the self-cleavage is 0.06.

GGCAGAGCUCAACACAGCUAGGCAAAGUGGCUGUGGCUCGACUGCC [G19U U20A A39C]: the self-cleavage came out at 0.03.

With GGCAGAGCUCAACACAGCGAGGCUAAAUGGCUGUGGAUAGACUGCC [U20A A24U G27A C37A], the self-cleavage worked out at 0.01.
